{"source": "PubChem BioAssay AID652104", "about": "(National Center for Advancing Translational Sciences (NCATS), 2013)", "note": "About 7,200 (1.8%) of roughly 410,000 compounds were called active. The inconclusive results got no clear call from the source; some entries with a clear call stand among them for comparison. Calls come from the whole dose curve; as a rule, active = well fitted activation curve with a large enough effect; inconclusive = small, poorly fitted or top-dose-only effect, or another doubt; inactive = no such curve, though single readings can be large or run the other way. No potency is given beside an inconclusive call; the fits are too rough. Potency is the fitted concentration of half-maximal effect; tags give direction and shape of the fitted curve."}
{"assay": "qHTS of TDP-43 Inhibitors; note: nearly all actives have a fitted effect of over 50% in size; for growth rescue (activation): % of control where 0% means no effect", "details": "TDP-43 expressing yeast growth rescue, BacTiter-Glo, 24 h; growth rescue (activation): at 46.1 µM (top of the series) unless noted", "in_short": "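In this qHTS, compounds that restore growth of yeast expressing TDP-43 appear as activators. Cells (OD600=0.02, galactose medium, raffinose-pregrown) are incubated with compound 24 hr at 30 deg C and growth is quantified by BacTiter-Glo.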"}
{"compound": "Cc1ccc2[nH]c(-c3cccc(N)c3)cc2c1", "Potency": "active: 22.4 µM"}
{"compound": "Cc1ccc(-c2nc3cnccn3c2Nc2ccc3c(c2)OCO3)o1", "Potency": "inconclusive [activator, partial curve]"}
{"compound": "COc1ccc2c(c1)CC/C(=C/c1ccccn1)C2=O", "Potency": "inconclusive [activator, partial curve]"}
{"compound": "O=C(C(=Cc1ccc(F)cc1)C(=O)c1ccccc1)c1ccccc1", "Potency": "active: 3.55 µM"}
{"compound": "COc1ccc2c(c1)c1c(c(=O)n(-c3ccc(F)c(Cl)c3)c(=O)n1CC(=O)N1CCCC1)n2C", "growth rescue (activation)": "inactive: 18.8%"}
{"compound": "O=C(CSc1nnc(Cn2nnc3ccccc32)o1)N(Cc1ccc(F)cc1)c1ccccc1", "Potency": "inconclusive [activator, single point]"}
{"compound": "COc1ccc(N2CCN(c3c(S(=O)(=O)c4ccccc4)cnc4ccc(OC)cc34)CC2)cc1", "Potency": "inconclusive [activator, single point]"}
{"compound": "CCOc1ccc(NC(=O)CN(C)C(=O)CCCn2c(=O)oc3ccccc32)cc1OCC", "growth rescue (activation)": "inactive: 2.48%"}
{"compound": "C=CCOc1c(Br)cc(/C=N/O)cc1OCC", "Potency": "inconclusive [activator, partial curve]"}
{"compound": "CCn1nc(C(=O)OCC(=O)N2CCc3ccccc32)c2ccccc2c1=O", "Potency": "inconclusive [activator, single point]"}
{"compound": "O=C(O/N=C(/c1ccccc1)c1ccncc1)c1ccccc1[N+](=O)[O-]", "Potency": "inconclusive [activator, single point]"}
{"compound": "Cc1ccc(-n2ncc3c(NCCO)ncnc32)cc1Cl", "Potency": "inconclusive [activator, partial curve, poor fit]"}
{"compound": "CCOc1ccccc1NC(=O)c1ccc2c(c1)CCN2S(=O)(=O)c1ccc(C)cc1", "growth rescue (activation)": "inactive: -0.207%"}
{"compound": "COc1ccc(-c2cc(C(=O)NCC3CCCO3)on2)cc1OC", "note": "(configuration not stated)", "Potency": "inconclusive [activator, partial curve]"}
{"compound": "O=C(COC(=O)c1cc(=O)[nH]c2ccccc12)Nc1ccc(F)cc1F", "Potency": "inconclusive [activator, single point]"}
{"compound": "Cc1ccc(C)c(OCc2cc(C(=O)NC(C)c3cnn(C)c3)no2)c1", "note": "(configuration not stated)", "Potency": "inconclusive [activator, single point]"}
{"compound": "COc1cc(OC)cc(C(=O)NCC(=O)Nc2ccc(-c3ccccc3)cc2)c1", "Potency": "inconclusive [activator, single point]"}
{"compound": "COc1ccc(NC(=O)Cn2c(=O)n(CCc3ccccc3)c(=O)c3c4c(sc32)CCCC4)cc1", "Potency": "inconclusive [activator, partial curve, poor fit]"}
{"compound": "COc1ccc(/C=C(/NC(=O)c2ccccc2OC)C(=O)Nc2ccc(C(=O)O)cc2)cc1", "Potency": "inconclusive [activator, partial curve]"}
{"compound": "CCC(CO)Oc1cc(NCc2ccccc2C(F)(F)F)c2ncn(C(C)C)c2c1", "note": "(configuration not stated)", "Potency": "inconclusive [activator, full curve]"}
{"compound": "CC(=O)O/N=C/c1c(Cl)n(C)c2ccccc12", "Potency": "inconclusive [activator, partial curve]"}
{"compound": "CCOC(=O)CNC(=O)CSc1nc(-c2cccc(C)c2)ns1", "Potency": "inconclusive [activator, partial curve]"}
{"compound": "COc1ccccc1C1=CC(=O)CCC1", "Potency": "inconclusive [activator, partial curve]"}
{"compound": "Cc1cccc(C(=O)N2CCc3cc(CNC(=O)COc4ccc(Cl)cc4)ccc32)c1", "growth rescue (activation)": "inactive: 11%"}
{"compound": "Clc1ccc2oc3c(Cl)ncnc3c2c1", "Potency": "inconclusive [activator, single point]"}
{"compound": "COc1ccc(CSCC(=O)Nc2ccccc2SC)cc1", "Potency": "inconclusive [activator, single point]"}
{"compound": "CC(=O)C(Sc1nc(N(C)C)nc(N(C)C)n1)C(=O)Nc1ccccc1", "note": "(configuration not stated)", "Potency": "inconclusive [activator, single point]"}
{"compound": "COc1ccc(-c2ccc(CCC(=O)O)n2C(C)C)cc1", "Potency": "inconclusive [activator, single point]"}
{"compound": "O=C(Nc1cccc(F)c1)c1ccccc1-c1ccccc1", "Potency": "inconclusive [activator, partial curve]"}
{"compound": "Cc1ccc(Sc2c(CO)c(-c3ccccc3)nn2C)cc1", "Potency": "inconclusive [activator, partial curve]"}
{"compound": "COc1ccc(S(=O)Cc2ccc(C(=O)N3CCN(c4cccc(C)c4C)CC3)o2)cc1", "note": "(configuration not stated)", "Potency": "active: 20 µM"}
{"compound": "Cc1c(C(=O)NCc2ccc(Cl)cc2)sc2nc3n(c(=O)c12)CCCCC3", "Potency": "inconclusive [activator, single point]"}
{"compound": "CC(C)Oc1ccc(C(=O)NC2=NCCS2)cc1", "Potency": "inconclusive [activator, single point]"}
{"compound": "CC1CCCCC1NC(=S)Nc1ccc(SC(F)F)cc1", "note": "(configuration not stated)", "Potency": "active: 20 µM"}
{"compound": "COc1ccc(N2CCN(C(=O)c3cc(=O)c4cc(C)ccc4o3)CC2)cc1", "Potency": "inconclusive [activator, full curve, poor fit]"}
{"compound": "Cc1ccc(-c2nc(CCNC(=O)c3ccco3)cs2)cc1", "growth rescue (activation)": "inactive: 12%"}
{"compound": "O=C(Nc1ccc(C(=O)OCc2cc(=O)n3c4c(sc3n2)CCCC4)cc1)c1ccc(F)cc1", "growth rescue (activation)": "inactive: 19.4%"}
{"compound": "COc1cccc(Cn2c(=O)cc(C)c3c(C)nn(C)c32)c1", "Potency": "inconclusive [activator, single point]"}
{"compound": "Cn1ccc2c(N(Cc3ccccc3)Cc3ccccc3)cc3c(c21)C1CCC3O1", "note": "(configuration not stated)", "Potency": "inconclusive [activator, partial curve, poor fit]"}
{"compound": "O=S(=O)(/C=C/c1ccccc1)Nc1ccc2c(c1)OCO2", "Potency": "inconclusive [activator, partial curve]"}
{"compound": "CCCc1nn2c(=O)cc(COC(=O)c3cccc(NC(=O)c4cccs4)c3)nc2s1", "growth rescue (activation)": "inactive: 10.6%"}
{"compound": "CC1(C)CC(=O)C(N=Nc2cccnc2)=C(O)C1", "Potency": "inconclusive [activator, single point]"}
{"compound": "COc1ccc(C)cc1NC(=O)CSc1nnc(COc2ccc(Cl)cc2)n1Cc1ccco1", "Potency": "inconclusive [activator, single point]"}
{"compound": "COc1cc(NC(=O)CC2C(=O)OCCN2Cc2ccccc2)cc(OC)c1", "note": "(configuration not stated)", "Potency": "active: 25.1 µM"}
{"compound": "O=C(NC1CCCC1)c1nc(-c2ccco2)oc1-c1ccccc1", "Potency": "inconclusive [activator, partial curve]"}
{"compound": "Cc1ccccc1NC(=O)c1ccc2[nH]c(C)c(C)c2c1", "Potency": "inconclusive [activator, single point]"}
{"compound": "COc1ccc(-c2cc(C3CC3)nc(N)c2C#N)cc1", "growth rescue (activation)": "inactive: 14.7%"}
{"compound": "CCC(C)c1ccccc1NC(=O)c1cc2cccc([N+](=O)[O-])c2[nH]1", "note": "(configuration not stated)", "Potency": "inconclusive [activator, single point]"}
{"compound": "CCOC(=O)c1[nH]c2ccccc2c1NC(=O)c1ccccc1F", "Potency": "inconclusive [activator, partial curve]"}
{"compound": "Cc1ccc(C(=O)N2CCC3CC2c2cc(-c4ccc5c(c4)OCO5)ccc23)cc1", "note": "(configuration not stated)", "Potency": "inconclusive [activator, partial curve, poor fit]"}
{"compound": "Cc1ccc(-c2nc(-c3ccccc3)no2)cc1", "Potency": "inconclusive [activator, partial curve, poor fit]"}
{"compound": "CC(C)c1cc(Br)ccc1OCCCN1C(=O)NC(C)(C)C1=O", "Potency": "inconclusive [activator, single point]"}
{"compound": "COc1cc(NC(=O)CN2C(=O)c3ccccc3Sc3ccc(C(=O)N4CCCC4)cc32)cc(OC)c1", "growth rescue (activation)": "inactive: 4.95%"}
{"compound": "CC(=O)c1ccccc1Oc1cc(NN2CCCCC2)c([N+](=O)[O-])cc1[N+](=O)[O-]", "Potency": "inconclusive [activator, partial curve]"}
{"compound": "COc1ccccc1N(C)c1cc2c(c3c1ccn3C)C1CCC2C1", "note": "(configuration not stated)", "Potency": "inconclusive [activator, full curve]"}
{"compound": "Cc1ccc(-n2cccc2C(=S)N=P(N(C)C)(N(C)C)N(C)C)cc1", "Potency": "inconclusive [activator, partial curve, poor fit]"}
{"compound": "Cc1ccc(S(=O)(=O)c2c(C)cc(C)nc2Cl)cc1", "Potency": "inconclusive [activator, partial curve]"}
{"compound": "C/C(Cn1nnc([N+](=O)[O-])n1)=N\\NC(=O)c1ccncc1", "Potency": "inconclusive [activator, single point]"}
{"compound": "O=C(NC1CCCN(c2ccc(C(F)(F)F)cn2)C1)c1ccncc1", "note": "(configuration not stated)", "Potency": "inconclusive [activator, partial curve]"}
{"compound": "CCc1ccc(/C=C2\\SC(=S)N(CCCC(=O)N(CCO)c3ccccc3)C2=O)cc1", "Potency": "active: 35.5 µM"}
{"compound": "O=C(c1ccc(Br)cc1)c1sc(N2CCOCC2)nc1-c1ccccc1", "Potency": "inconclusive [activator, single point]"}
{"compound": "C#CCSc1nnnn1-c1cccc(Cl)c1", "Potency": "inconclusive [activator, single point]"}
{"compound": "COc1ccc(-n2c(SCC(=O)NCc3ccccc3)nc3c([nH]c4ccccc43)c2=O)cc1", "growth rescue (activation)": "inactive: 17.9%"}
{"compound": "CC1CCN(c2nc(Cl)nc(Nc3ccc([N+](=O)[O-])cc3)n2)CC1", "Potency": "active: 20 µM"}
{"compound": "CN(c1ccccc1)S(=O)(=O)c1cccc(Cl)c1Cl", "Potency": "inconclusive [activator, partial curve]"}
{"compound": "COc1cc(Nc2nc(SCC(=O)c3ccc(Cl)c(Cl)c3)nc3ccccc23)cc(OC)c1", "Potency": "active: 12.6 µM"}
{"compound": "Cc1ccc(N(Cc2cccs2)C(=O)c2ccco2)cc1", "Potency": "inconclusive [activator, single point]"}
